T1: RBFOX1 RRM (Homo sapiens, UniProt Q9NWB1 109-208)
T1 sequence: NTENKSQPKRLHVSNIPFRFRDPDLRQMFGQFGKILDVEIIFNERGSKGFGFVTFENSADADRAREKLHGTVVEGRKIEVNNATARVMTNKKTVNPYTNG

B1: AAUGCGC (DNA:RNA)
RNA: GGGAGACCGGAAUUCAGAUUGUCCAAUGCGCUUAAAUCCCGUCGUAGCCACCA
DNA 1: CAATCTGAATTCCGGTCTCCC
DNA 2: TGGTGGCTACGACGGGATT
B2: AACUCAG (DNA:RNA)
RNA: B1 RNA with U27C, G28U, G30A, C31G
DNA 1: CAATCTGAATTCCGGTCTCCC
DNA 2: TGGTGGCTACGACGGGATT
B3: AGUCAUU (DNA:RNA)
RNA: B1 RNA with A26G, G28C, C29A, G30U, C31U
DNA 1: CAATCTGAATTCCGGTCTCCC
DNA 2: TGGTGGCTACGACGGGATT
B4: ACGGGUC (DNA:RNA)
RNA: B1 RNA with A26C, U27G, C29G, G30U
DNA 1: CAATCTGAATTCCGGTCTCCC
DNA 2: TGGTGGCTACGACGGGATT
B5: CCGCUUU (DNA:RNA)
RNA: GGGAGACCGGAAUUCAGAUUGUCCCCGCUUUUUAAAUCCCGUCGUAGCCACCA
DNA 1: CAATCTGAATTCCGGTCTCCC
DNA 2: TGGTGGCTACGACGGGATT
B6: CCGACUC (DNA:RNA)
RNA: B5 RNA with C28A, U29C, U31C
DNA 1: CAATCTGAATTCCGGTCTCCC
DNA 2: TGGTGGCTACGACGGGATT
B7: UCACCCG (DNA:RNA)
RNA: B5 RNA with C25U, G27A, U29C, U30C, U31G
DNA 1: CAATCTGAATTCCGGTCTCCC
DNA 2: TGGTGGCTACGACGGGATT
B8: GGAGCCC (DNA:RNA)
RNA: B1 RNA with A25G, A26G, U27A, G30C
DNA 1: CAATCTGAATTCCGGTCTCCC
DNA 2: TGGTGGCTACGACGGGATT
B9: UCACCAG (DNA:RNA)
RNA: B5 RNA with C25U, G27A, U29C, U30A, U31G
DNA 1: CAATCTGAATTCCGGTCTCCC
DNA 2: TGGTGGCTACGACGGGATT

Changes are numbered by the printed parent chain; changes in the protein carry UniProt numbers. The list shows a part of the results.

This assay concerns the target T1, RBFOX1 RRM. Put plainly: EMSA; HiTS-Eq, 1 nM pool, 10 min; buffer printed only for the single-RNA assays: 10 mM Tris pH 7.5, 150 mM NaCl, 3.4 mM EDTA, 0.001% NP-40, 30 C. The conditions noted are these: tags: His6 N-terminal (pET28a); label: 5' 32P. In a few lines: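 Relative association constants, normalised to the cognate motif, were derived by comparing read counts of each RNA species with those of the control reaction. The RNA sequenced was the free fraction, separated by 8% native PAGE after a 10 min equilibration in 50 µL of 1 nM 5′-radiolabelled RNA (7 randomized nucleotides) with increasing concentrations of purified wild-type or mutant RbFox RRM.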
In the case of B1, the binding signal was 0.0106 KA relative to UGCAUGU.

In the case of B2, the binding signal was 0.0069 KA relative to UGCAUGU.

Consider B3, for which the binding signal was 0.00583 KA relative to UGCAUGU.

With B4, the binding signal was 0.0159 KA relative to UGCAUGU.

Take B5: the binding signal is 0.00999 KA relative to UGCAUGU.

B6: the binding signal is 0.00787 KA relative to UGCAUGU.

With B7, the binding signal was 0.0029 KA relative to UGCAUGU.

With B8, the binding signal is 0.0103 KA relative to UGCAUGU.

Regarding B9, the binding signal is 0.00424 KA relative to UGCAUGU.

The values are drawn from article PMC9911399, “Two distinct binding modes provide the RNA-binding protein RbFox with extraordinary sequence specificity”.
